Assay results from PubChem BioAssay AID504339 (National Center for Advancing Translational Sciences (NCATS), 2011).
Hit rate of the full screen: of about 390,000 compounds, about 17,000 (4.4%) were called active. The shares of active, inactive and inconclusive entries below differ from those in the screen. Calls come from the whole dose curve; as a rule, active = well fitted inhibition curve with a large enough effect; inconclusive = small, poorly fitted or top-dose-only effect; inactive = no such curve, though single readings can be large or run the other way. Potencies of inconclusive entries are doubtful fits and often do not repeat.

Biological target: Lysine-specific demethylase 4A (Homo sapiens) (UniProt O75164)
UniProt O75164, sequence (O75164 whole entry, looked up, the tested form may be a part): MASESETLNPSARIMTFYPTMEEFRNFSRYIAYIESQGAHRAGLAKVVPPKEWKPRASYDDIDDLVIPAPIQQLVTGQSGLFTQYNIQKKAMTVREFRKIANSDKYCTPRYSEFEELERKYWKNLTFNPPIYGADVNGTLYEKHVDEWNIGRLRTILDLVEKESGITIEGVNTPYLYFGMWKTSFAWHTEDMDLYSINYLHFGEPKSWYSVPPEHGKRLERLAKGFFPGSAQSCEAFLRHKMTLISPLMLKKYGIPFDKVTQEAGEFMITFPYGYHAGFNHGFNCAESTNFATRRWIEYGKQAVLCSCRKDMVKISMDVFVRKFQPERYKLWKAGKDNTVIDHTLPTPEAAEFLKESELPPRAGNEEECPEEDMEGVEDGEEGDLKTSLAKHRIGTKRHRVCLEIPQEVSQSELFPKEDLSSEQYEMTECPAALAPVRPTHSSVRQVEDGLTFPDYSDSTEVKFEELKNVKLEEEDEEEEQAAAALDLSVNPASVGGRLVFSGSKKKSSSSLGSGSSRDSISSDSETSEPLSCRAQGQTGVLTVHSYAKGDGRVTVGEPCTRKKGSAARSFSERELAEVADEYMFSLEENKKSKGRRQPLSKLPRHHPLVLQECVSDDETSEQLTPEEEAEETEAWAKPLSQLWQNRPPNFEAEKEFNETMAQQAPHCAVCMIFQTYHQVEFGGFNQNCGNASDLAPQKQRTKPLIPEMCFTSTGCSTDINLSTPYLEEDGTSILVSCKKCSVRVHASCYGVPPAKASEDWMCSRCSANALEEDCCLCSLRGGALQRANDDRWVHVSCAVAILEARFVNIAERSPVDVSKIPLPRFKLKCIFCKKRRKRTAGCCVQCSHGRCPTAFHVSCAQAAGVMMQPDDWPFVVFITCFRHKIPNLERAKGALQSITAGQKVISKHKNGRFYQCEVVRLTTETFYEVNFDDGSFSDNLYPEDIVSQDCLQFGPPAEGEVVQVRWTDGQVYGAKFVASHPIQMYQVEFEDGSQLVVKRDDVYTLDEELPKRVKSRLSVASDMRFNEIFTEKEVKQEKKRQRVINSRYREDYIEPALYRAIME
Assay: qHTS Assay for Inhibitors of JMJD2A-Tudor Domain; note: nearly all actives have a fitted effect of over 50% in size
Details: AlphaScreen JMJD2A-Tudor / H3K4me3 peptide binding; activity change, negative = inhibition: at 114 µM (top of the series)
% is set by controls: 0 for no effect and ±100 for the full control effect; potency is the fitted concentration of half-maximal effect; tags give direction and shape of the fitted curve.

Q: Which Potency does the source give for `COc1ccc(N2C(=O)C(Cl)=C(Oc3cccc(OC)c3)C2=O)cc1` here?
A: inconclusive: 14.1 µM [inhibitor, single point]

Q: Which Potency does the source give for `CC(C)(C)c1ccc(C(=O)NNc2cc(N3CCCCC3)nc(N3CCCCC3)n2)cc1` here?
A: inconclusive: 8.91 µM [inhibitor, full curve]

Q: `CNC(=O)C(Sc1nc(C)nc2c1oc1ccccc12)C(C)=O` (stereo not given) was tested. Which Potency did it give?
A: inactive

Q: For `COc1ccc([N+](=O)[O-])cc1NC(=S)NC(C)=O`, which Potency is on record?
A: inconclusive: 14.1 µM [inhibitor, full curve, poor fit]

Q: Which Potency does the source give for `COc1ccccc1NC(=O)COC(=O)c1cc2c(s1)CCC2` here?
A: active: 50.1 µM

Q: With `Cc1noc(C)c1COC(=O)CCN1c2ccccc2Sc2ccccc21` as the compound, how does the Potency read?
A: inconclusive: 39.8 µM [inhibitor, single point]

Q: With `O=C(CSC1=NNC(c2ccccn2)S1)Nc1cccc(Cl)c1` (stereo not given) as the compound, how does the Potency read?
A: active: 22.4 µM

Q: For `COc1ccc(Cn2c(=O)[nH]c3cc(C(=O)N4CCN(c5ccccc5OC)CC4)ccc3c2=O)cc1`, which Potency is on record?
A: inconclusive: 50.1 µM [inhibitor, partial curve]

Q: For `COc1ccc2cc(CCNC(=O)c3ccc(S(=O)(=O)N4CCCC4)cc3)c(=O)[nH]c2c1`, which Potency is on record?
A: inactive

Q: How did the Potency turn out when `CCc1ccc(Nc2n[n+](-c3ccccc3)c(-c3ccc(SC)cc3)s2)cc1` was run?
A: inconclusive: 70.8 µM [inhibitor, single point]

Q: For `CC(C)CCNC(=O)C1CCN(c2nc3ccc(Cl)cc3[nH]2)CC1`, which Potency is on record?
A: inactive

Q: For `CCOC(=O)c1cc2c(=O)n3ccccc3nc2n(Cc2ccco2)c1=NC(=O)c1c(F)cccc1Cl`, which Potency is on record?
A: inactive

Q: With `CCNC(=O)COc1ccc(/C=C2\COc3ccccc3C2=O)cc1OC` as the compound, how does the Potency read?
A: inactive

Q: With `c1csc(CNc2ncnc3ccc(-c4ccc5c(c4)OCCO5)cc23)c1` as the compound, how does the Potency read?
A: inconclusive: 79.4 µM [inhibitor, partial curve]

Q: Which Potency does the source give for `O=c1oc2ccccc2n1Cc1ccccc1Cl` here?
A: inactive

Q: How did the Potency turn out when `Cc1cc(C(=O)CSc2nc3ccccc3n2C)c(C)n1C` was run?
A: inconclusive: 56.2 µM [inhibitor, partial curve]

Q: With `Cc1cc(C(=O)OCC(=O)c2ccccc2)c2ccccc2n1` as the compound, how does the Potency read?
A: inactive

Q: `COc1ccc(C(C)=O)cc1COC(=O)c1cccc(N(C)C)c1` was tested. Which Potency did it give?
A: inconclusive: 56.2 µM [inhibitor, partial curve]

Q: Which Potency does the source give for `COc1ccc(C(CCNCc2ccc(F)cc2)c2ccc(F)cc2)cc1` (stereo not given) here?
A: inactive

Q: How did the Potency turn out when `O=C(NCc1ccccc1)c1nc(S(=O)(=O)Cc2ccccc2)ncc1Cl` was run?
A: inactive

Q: For `Cc1ccc(C)c(OCCCNCc2ccccc2)c1`, which Potency is on record?
A: active: 44.7 µM

Q: How did the Potency turn out when `COc1ccccc1NC(=S)N(CCc1c(C)[nH]c2ccccc12)Cc1cccs1` was run?
A: inconclusive: 25.1 µM [inhibitor, full curve]

Q: For `COc1ccc(OC)c(C2C(C#N)=C(N)Oc3cc(C)[nH]c(=O)c32)c1` (stereo not given), which Potency is on record?
A: inconclusive: 22.4 µM [inhibitor, full curve]

Q: Which Potency does the source give for `COc1ccc(-c2csc(/C(C#N)=C\c3ccc(O)c([N+](=O)[O-])c3)n2)cc1OC` here?
A: active: 12.6 µM

Q: For `Cc1cccc(-n2ccnc2SCC(=O)Nc2cccc3ccccc23)c1C`, which Potency is on record?
A: inconclusive: 20 µM [inhibitor, full curve]

Q: With `CC(=O)Oc1c(Sc2ccccc2[N+](=O)[O-])c(C)nn1C(C)(C)C` as the compound, how does the Potency read?
A: inconclusive: 50.1 µM [inhibitor, partial curve]

Q: How did the Potency turn out when `CC(=O)Nc1cccc(S(=O)(=O)N2CCN(S(=O)(=O)c3ccc4c(c3)OCCO4)CC2)c1` was run?
A: inactive

Q: `Cc1nn(-c2ccccc2)c(C)c1/C=N/NC(=O)CSc1nnc(-c2ccccc2)n1-c1ccc(Cl)cc1` was tested. Which Potency did it give?
A: inconclusive: 3.55 µM [inhibitor, partial curve]

Q: How did the Potency turn out when `Cc1ccc2nc(-c3ccccn3)c(NC3CCCC3)n2c1` was run?
A: active: 44.7 µM

Q: How did the activity change, negative = inhibition turn out when `Cc1sc(Cc2nc(O)cs2)nc1-c1ccccc1` was run?
A: inactive: 8.27% [at 11.4 µM]

Q: How did the Potency turn out when `O=[N+]([O-])c1ccc(-c2cc(-c3ccc(Cl)cc3)n[nH]2)cc1` was run?
A: inconclusive: 3.98 µM [inhibitor, single point]

Q: Which Potency does the source give for `CCOC(=O)CSc1nnc(NCC(=O)OC)c(=O)[nH]1` here?
A: inactive

Q: For `Cc1cc(C)c2nc(NC(=O)c3ccc(S(=O)(=O)N4CCc5ccccc54)cc3)sc2c1`, which Potency is on record?
A: inactive

Q: For `CC1(C)C(=O)Nc2ccccc2N1C(=O)COC(=O)c1cccs1`, which Potency is on record?
A: inconclusive: 15.8 µM [inhibitor, full curve, poor fit]

Q: `Cc1ccccc1OCCn1cnc2cc([N+](=O)[O-])ccc2c1=O` was tested. Which Potency did it give?
A: inactive

Q: How did the Potency turn out when `COc1ccc(OCCCn2cccc2/C=C2/C(=N)N3OC(C)=CC3=NC2=O)cc1` was run?
A: inconclusive: 39.8 µM [inhibitor, partial curve]

Q: Which Potency does the source give for `COc1ccc(CCNC(=O)c2cc3sccc3n2Cc2ccc(Cl)cc2)cc1OC` here?
A: inconclusive: 22.4 µM [inhibitor, full curve]

Q: For `CCOc1ccccc1CN1CCc2nc(Nc3ccc4c(c3)OCCO4)ncc2C1`, which Potency is on record?
A: active: 56.2 µM

Q: With `COc1ccc(OC)c(NC(=O)CSc2nnc(CNC(=O)c3cc(OC)c(OC)c(OC)c3)o2)c1` as the compound, how does the Potency read?
A: inconclusive: 89.1 µM [inhibitor, partial curve]

Q: For `COC(=O)CCC(=O)OC1(C)C(=O)C2=CN(CCc3ccccn3)C(c3ccc(OC)cc3)=CC2=C(Br)C1=O` (stereo not given), which Potency is on record?
A: inconclusive: 50.1 µM [inhibitor, partial curve]

Q: With `Cc1ccc(-c2cc(NC(=O)CCl)n(-c3ccccc3)n2)cc1` as the compound, how does the Potency read?
A: active: 79.4 µM

Q: Which Potency does the source give for `Cn1cccc1/C=N/NC(=O)c1ccncc1` here?
A: inactive

Q: `CC(Oc1ncnc2ccccc12)C(=O)Nc1cccc(S(=O)(=O)N2CCOCC2)c1` (stereo not given) was tested. Which Potency did it give?
A: inactive

Q: With `Cc1ccccc1Cc1c(C)nc2c(C(=O)NCc3ccco3)cnn2c1C` as the compound, how does the Potency read?
A: inconclusive: 50.1 µM [inhibitor, partial curve]

Q: `COc1ccc(-n2ncc3c(NCc4ccco4)ncnc32)cc1` was tested. Which Potency did it give?
A: inconclusive: 56.2 µM [inhibitor, partial curve]

Q: Which Potency does the source give for `CCN(CC)C(=O)c1[nH]cnc1C(=O)N[C@H](C)c1ccccc1` here?
A: active: 89.1 µM

Q: Which Potency does the source give for `COc1ccc(OC)c(Nc2nc(NCCC(C)C)nc(N)c2[N+](=O)[O-])c1` here?
A: inconclusive: 10 µM [inhibitor, full curve, poor fit]

Q: For `O=C(COCC(=O)N/N=C/c1ccc(F)cc1)N/N=C/c1ccc(F)cc1`, which Potency is on record?
A: inconclusive: 14.1 µM [inhibitor, full curve]

Q: For `O=C(CN1CCC(Cc2ccccc2)CC1)N1CCc2ccccc2C1`, which Potency is on record?
A: inconclusive: 1.41 µM [inhibitor, full curve, poor fit]

Q: For `COc1cc(CNc2ccc(CNc3ncn[nH]3)cc2)ccc1OCc1ccccc1`, which Potency is on record?
A: inconclusive: 50.1 µM [inhibitor, partial curve]

Q: Which Potency does the source give for `C=CCNCc1cccn1-c1sc2c(c1C#N)CCCC2` here?
A: active: 3.16 µM

Q: For `CC(C)CNS(=O)(=O)c1ccc(OCC(=O)NCC2CCCO2)c(Cl)c1` (stereo not given), which Potency is on record?
A: inactive

Q: How did the Potency turn out when `CCOC(=O)C(=NCC1CCCO1)NNc1ccccc1Cl` (stereo not given) was run?
A: inconclusive: 39.8 µM [inhibitor, partial curve]

Q: How did the Potency turn out when `O=C(NC(=S)NC1CCCCCC1)c1cncc(Br)c1` was run?
A: inconclusive: 56.2 µM [inhibitor, single point]

Q: `COc1cccc(CN(C)C(=O)Cn2cc(C)c(=O)[nH]c2=O)c1` was tested. Which Potency did it give?
A: inconclusive: 100 µM [inhibitor, single point]

Q: `O=C(N/N=C/C=C/c1ccccc1[N+](=O)[O-])c1ccncc1` was tested. Which Potency did it give?
A: inconclusive: 89.1 µM [inhibitor, partial curve]

Q: Which Potency does the source give for `C=CCOc1ccccc1/C=N/NC(=O)Cc1ccc(C)cc1` here?
A: inactive

Q: Which Potency does the source give for `Cc1cccc(N2C(=O)CSC23C(=O)N(CC(=O)NCc2ccccc2Cl)c2ccccc23)c1` (stereo not given) here?
A: inactive

Q: For `COc1ccccc1NC(=O)Cn1c(=O)c(CNc2ccc(C)cc2)cc2cc3c(cc21)OCCO3`, which Potency is on record?
A: inconclusive: 10 µM [inhibitor, full curve]

Q: With `Cc1[nH]c2ccccc2c1CCN(Cc1cccs1)C(=S)NC(C)(C)C` as the compound, how does the Potency read?
A: inconclusive: 50.1 µM [inhibitor, partial curve]

Q: `Cc1ccc(NC(=O)CSc2nnc(NC(=O)CN3CCOCC3)s2)cc1` was tested. Which Potency did it give?
A: inconclusive: 3.55 µM [inhibitor, full curve, poor fit]

Q: For `Cc1c(C)n(C)c2ccc(C(=O)NCCCN3CCOCC3)cc12`, which Potency is on record?
A: inconclusive: 100 µM [inhibitor, single point]

Q: For `O=C(Cc1ccc([N+](=O)[O-])cc1)N1N=C(c2ccncc2)CC1(O)C(F)(F)F` (stereo not given), which Potency is on record?
A: inconclusive: 15.8 µM [inhibitor, full curve]

Q: How did the Potency turn out when `Cc1ccc(-c2cc(-c3n[nH]c(=S)o3)c3ccccc3n2)cc1` was run?
A: inconclusive: 89.1 µM [inhibitor, single point]

Q: `CCC(CC)c1nnc(NC(=O)COc2ccc3c(c2)OCO3)s1` was tested. Which Potency did it give?
A: inconclusive: 56.2 µM [inhibitor, partial curve]

Q: `COc1cccc(-c2nc(S(=O)(=O)c3ccccc3)c(N3CCC(C)CC3)o2)c1` was tested. Which Potency did it give?
A: inconclusive: 39.8 µM [inhibitor, partial curve]

Q: Which Potency does the source give for `Cc1cc2nc(-c3ccc(SCc4ccc(C(=O)O)cc4)nc3)[nH]c2cc1C` here?
A: inconclusive: 44.7 µM [inhibitor, partial curve]

Q: With `CSc1ccccc1OCc1cc(C(=O)NCCN2CCCc3ccccc32)no1` as the compound, how does the Potency read?
A: inconclusive: 56.2 µM [inhibitor, partial curve]

Q: How did the Potency turn out when `CC1CN(C(=S)SCC(=O)c2ccc(Cl)cc2)CC(C)O1` (stereo not given) was run?
A: inconclusive: 89.1 µM [inhibitor, single point]

Q: `CCS(=O)(=O)c1c(Nc2cc(C)ccc2C)sc(C(=O)c2ccccc2)c1N` was tested. Which Potency did it give?
A: inconclusive: 25.1 µM [inhibitor, full curve]
